# Data: the RNAGym collection of RNA variant scans (doi:10.1073/pnas.2313332121)
# Variants at the floor of the assay are shown more often than the library holds them.
# B1: TPR 5TU (parent)
# chain: GGAUCUUCUCGAUCUAACAAAAAAGACAAAUCUGCCACAAAGCUUGAGAGCAUCUUCGGAUGCAGAGGCGGCAGCCUUCGGUGGCGCGAUAGCGCCAACGUUCUCAACUAUGACACGCAAAACGCGUGCUCCGUUGAAUGGAGUUUAUCAUG
# Variants of: B1
# Test: polymerase ribozyme fitness, log enrichment relative to wild type (log ratio); higher = more active; in vitro selection for triplet polymerase activity
# In short: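 After PCR construction and transcription, each subunit's mutant library from a heterodimeric triplet polymerase ribozyme was annealed with a biotinylated primer, the partner subunit and triplets. Incubation was frozen, at −7 °C, and extended constructs were gel-excised, bound to streptavidin beads and amplified by RT-PCR, in one selection round done in triplicate. Fitness is the logarithm of a genotype's enrichment divided by that of the wild type, from inverse-variance-weighted replicate averages of Illumina-sequenced inputs and outputs. The base of the logarithm is 2, and genotypes needed ≥10 input reads and ≥1 read per output.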
row,Variant,polymerase ribozyme fitness (log ratio)
1,U15G A26C G48A G68A C75A U90G C93G,≤ -4.2
2,U15C A66C C85U C93A C105G C108A G124A,≤ -4.2
3,C14U C116G G128A C129G U135G,≤ -4.2
4,U15C A19G C69G C76A C79G G84U C95A A110U,≤ -4.2
5,C14U G25U A37U U55A C85A,≤ -4.2
6,C14U C18G U56G C57G G67C U109G,≤ -4.2
7,C14U A16U A73U C87U C114U,≤ -4.2
8,U15C C27G A52C G62A C76A G84C G141C U145C,≤ -4.2
9,C14U U31A U33G U56G C76A C95A,≤ -4.2
10,U15G A20U A37G U45A G50C G70U C95U C118G G141C A147C G152A,≤ -4.2
11,U15A A49C A60C G83C C129G,≤ -4.2
12,C14U G71A G84U A138C G141C,≤ -4.2
13,U15C U55G,0.263
14,C14U G94C A107G G117A A142U,≤ -4.2
15,U15A C85A A91U A98C C116G G136A,≤ -4.2
16,C14U G50C A97U A98U A137G,≤ -4.2
17,U15C G25C A39U C93U,≤ -4.2
18,C14G U77A G94U U151G,≤ -4.2
19,C14U A23G A107U A138C,≤ -4.2
20,C14U G58C G86U C105A,≤ -4.2
21,U15G A17U C79G G80A G81U G92A G124A A147U,≤ -4.2
22,U15C A24U A40G G68A C85A U139G,≤ -4.2
23,U15A C43A G86A C87U A119U,≤ -4.2
24,C14U C38U C51U G74U C87G A121G G143C,≤ -4.2

row,Variant,polymerase ribozyme fitness (log ratio)
1,C14G U56G C95U C116A G140U,≤ -4.2
2,C14U A23U U78G C85G U151A,≤ -4.2
3,C14U A47C C54U G84A,-1.86
4,U15A U55A C87A C132U A147C G152A,≤ -4.2
5,C14U A66C C85A G94A U145G,≤ -4.2
6,C14U A30U U53G G58U G65C G74A,≤ -4.2
7,U15G A23C U44A C93U C108G U144C,≤ -4.2
8,U15C A26U C57G G59U C87A G88A A107U U148G,≤ -4.2
9,C14U G25A C54U C63G A73G U90C G92C U148A,≤ -4.2
10,U15G C27U G84A,-1.78
11,C14U U45A A49C C96U C131G G141U,≤ -4.2
12,U15A A28U G59U U101A,≤ -4.2
13,U15A A20C G42C C63U G81C G86A C103U U109A A137G,≤ -4.2
14,U15C A24G U55A C76G C85A C123A G124C,≤ -4.2
15,C14G U102A,-4.05
16,U15G A26C U31C U44G G46A C118U C129A,≤ -4.2
17,U15G A17U,-0.367
18,U15G C27A C69U G70U G88U C93A G143A,≤ -4.2
19,U15A G48A C87U A91U C93U,≤ -4.2
20,U15A G25C A29C G48C A64U C93U C95A C149A,≤ -4.2
21,U15C A24C C43A C54G C57U G86U U111G,≤ -4.2
22,U15A C43U U53G C76A U102G A119G G128U U135G A142U,≤ -4.2
23,U15A A17U C57G G88U A91C U111C C129A U134G U148C,≤ -4.2
24,U15A U31C A40C G48U G83C C123U A142U,≤ -4.2

row,Variant,polymerase ribozyme fitness (log ratio)
1,U15C A21U C32G U33A C75G C85U G94U A107G A142G,≤ -4.2
2,U15G A29C G100A,≤ -4.2
3,U15C A91U,≤ -4.2
4,U15G A47U A73U U82C C93G G126U U148A,≤ -4.2
5,C14U A40G G42C C93G C95G A97U,≤ -4.2
6,C14U C36U G74A A91G C95U,≤ -4.2
7,U15C G50C C51G A52G C87G C108A,≤ -4.2
8,C14U G42U G50C U56A C57U C75G G84U,≤ -4.2
9,C14U U31A G48C G67C A91U,≤ -4.2
10,U15A A22G G34A G62A C72U U102G,≤ -4.2
11,U15G C27A,-4.13
12,U15C C54A G62A U78A G88C A113C A150U,≤ -4.2
13,C14U C87U,-2.18
14,C14U C87A,≤ -4.2
15,U15A U55A C57G G86C C132G,≤ -4.2
16,C14U U53A C76A C103G C108A C118U,≤ -4.2
17,U15C G48A C87A U101G,≤ -4.2
18,U15A A24G C36A G50A U78A G84U A106G,≤ -4.2
19,C14U G25A G70C C72U G84A C93G C123G G140U,≤ -4.2
20,U15C A21C C96G C123G A138C G140A,≤ -4.2
21,C14U A16U A49C G50A U53A C72U U77G C99G G100A C118G,≤ -4.2
22,C14G U82A G84A C87U C118G,-3.78
23,C14U A52C G86U C87U A113U G141C U148G,≤ -4.2
24,C14U A22U G34A A52G G58A G86A G94C U148A G152C,≤ -4.2

row,Variant,polymerase ribozyme fitness (log ratio)
1,C14U C36A G46C C103A A115G,≤ -4.2
2,C14U C35U G84U C131U,-3.79
3,C14U U56A,-1.8
4,U15G C18G G46U A47U G50A G58A G81A G83U A115C,≤ -4.2
5,U15G A21C A49C C54U G86A,≤ -4.2
6,U15G A28G A29U A49U G83U A98U,≤ -4.2
7,U15A A30C G48A G59A A91U C99G A106U A107U A113U G140C G143A,≤ -4.2
8,U15G A16C A21U A26C C103U,-3.98
9,C14U A41U G58A A60U C93G,≤ -4.2
10,C14U A66G G94A C96U C99G U144G,≤ -4.2
11,U15G A49G C87U G136A,-1.17
12,U15A C76A G94U C125U C131U C149A G152U,≤ -4.2
13,U15G A21C A26U C38G G92A A113C,≤ -4.2
14,U15G A26U C57A C72G A91U,≤ -4.2
15,C14U A30U G65A G88A U139A,≤ -4.2
16,U15G A21U C35U A41C G50A G92A G117A A122U,≤ -4.2
17,U15C A28U C35A G92A G112U U151A,≤ -4.2
18,U15G A49C G50A U78A A91C C93A G126U,≤ -4.2
19,C14U C57A,-0.738
20,U15A G59A C76A U90A U145G,≤ -4.2
21,C14U A91U,≤ -4.2
22,C14U A91G,-3.98
23,C14U U55A G126A C132U,-1.73
24,U15G C18G A20G A49C A52G C87A G92U,≤ -4.2

row,Variant,polymerase ribozyme fitness (log ratio)
1,U15C A21U C36A G67U G68A C93U G94C G128U G140U A142C,≤ -4.2
2,U15G A16U G48A G59U U61A C75A G83C,≤ -4.2
3,C14U C72U C76U C96A G112U,≤ -4.2
4,U15A C27U A47G A52C U55A A73U G74C U90C G94A U139G,≤ -4.2
5,U15A C57A C95U C114G C132A,≤ -4.2
6,U15G A39U C43U G50C G94A,≤ -4.2
7,U15A G83U G84U G140U,≤ -4.2
8,C14U C87U G88C,≤ -4.2
9,C14U A21G A24C A28U U53C C75U,≤ -4.2
10,U15C C38A U61A C87U A122G,-2.73
11,C14U A40C C76G C114U,≤ -4.2
12,C14U G152C,≤ -4.2
13,U15C G80C C93G A115C U144C,≤ -4.2
14,U15A G70A G88C G126A G128U,≤ -4.2
15,U15G A17G A28C C43A U56A A91U C125U U144G,≤ -4.2
16,U15G A28G C35U U55G U56G C95A A150C,≤ -4.2
17,U15A A24G A73G G88A C95U C103U,≤ -4.2
18,U15G A37U G42C U53G A60U U61G C79A G86A G128C U146G,≤ -4.2
19,C14U A30C A91U,≤ -4.2
20,U15G A49G G50A C105A C118A C149G G152U,≤ -4.2
21,U15A A22G G68C A89C C99A C116A U144G,≤ -4.2
22,C14U A20C C43U U53A A60U C87G C103G G141A,≤ -4.2
23,U15A A19C C27G C36A G62C U78C C87G U104C,≤ -4.2
24,U15C A41G U61G C99U,-2.24

row,Variant,polymerase ribozyme fitness (log ratio)
1,U15A A142C,-0.894
2,C14U A23C G83A G126C,≤ -4.2
3,U15A A29G U78A G88A G126U U135G U148G,≤ -4.2
4,U15A C18U C54U C63G C93U G143C,≤ -4.2
5,C14U A19U A26U U56C G71A C76G G84C C85G,≤ -4.2
6,C14U C93U U127A C131A,≤ -4.2
7,C14U C43A C54G C96A,≤ -4.2
8,C14U C18G C57U G92U A110G,≤ -4.2
9,C14U A107U G117A C118A A142G,≤ -4.2
10,C14U C27G U82A C96G A138G U146G A147G,≤ -4.2
11,C14U G67A G88A G136U,≤ -4.2
12,U15A A17C C32G A60G C99U C116U,≤ -4.2
13,U15G A29U A91G U102G A110U A120U,≤ -4.2
14,C14U A19U A52U C54A A73G C93G U134G U148G,≤ -4.2
15,U15G A17C G25U U45A G59C A60C A106C U134G,≤ -4.2
16,U15A A21G A49G C96G,-1.26
17,C14U A21U G50C U56A A66C A91U G143C,≤ -4.2
18,U15G A17C A21G A49U C75A U101G,≤ -4.2
19,C14U C32U A41C G67C G141A U146A,≤ -4.2
20,U15G A29U C43A G94U,≤ -4.2
21,U15A C32U G84C C85A C118U U135A A142U G143C,≤ -4.2
22,U15G A28U C85A G86A G92A A106G A115C,≤ -4.2
23,C14U A26U C87U G88U,≤ -4.2
24,U15C C75A G80C C99G,≤ -4.2

row,Variant,polymerase ribozyme fitness (log ratio)
1,C14U A23U U56C C87U U90G,≤ -4.2
2,U15G A47C,-0.922
3,C14U A26U U55A G74A A91C U109G,≤ -4.2
4,U15G A29C U31G G88C C116U,≤ -4.2
5,C14U A30G A52C U55G C87U A89U C116A,≤ -4.2
6,C14U A21G U31G U33G U55A A73G U78G C96U,≤ -4.2
7,U15C A37U C118U,-0.404
8,C14U G34U A49C G59C C69A A91C U139A A147C,≤ -4.2
9,U15A A40G A98G G133U,≤ -4.2
10,U15A G58A G86A U144G,0.552
11,C14U A20C A39C G50A G83C C116U G128A,≤ -4.2
12,C14U A26C G42C U45A A64U A73G C87G C96A,≤ -4.2
13,C14U C54U C69U C85A A110C G143A,≤ -4.2
14,C14G U77G C93U C96G,≤ -4.2
15,C14U G42A C87U G136A,≤ -4.2
16,C14U A26U A47C A66C G84C G86U A89U C96U,≤ -4.2
17,C14U A28U A122G G141C,-4.15
18,C14U A24G A30G C36U C54U C96A U151A,≤ -4.2
19,C14U G25U C43U G58U G83C A97C G143U,≤ -4.2
20,U15G A19U A91U,-3.99
21,U15C A49C U77G C85A U109C,≤ -4.2
22,C14U C27U U90C A91U C116G,-3.77
23,U15G A60C G88C,≤ -4.2
